Assay results as given in publication PMC5515408.
Some of the results follow. At the low end of the ranking the order means little.

Each sequence was assayed on MYC (p64) + MAX (p21), in MYC:MAX (assay: protein-binding microarray (anti-MAX antibody)). Details: PBM: 15 mM Tris-HCl pH 7.5, 100 mM KCl, 0.075% NP40, 7.5 mM beta-mercaptoethanol, 375 ng/ul BSA, 8 ng/ul poly(dA-dT):(dA-dT), 550 ng complex, 60 min, room …; high values mean tight binding; double strand, one strand shown; sequences stand for … in CCGGC…TTAATAGCTAAGATTACTATATCGACG.
TGATATTTTGTA showed a binding signal (log2 normalized fluorescence) of -0.402. For TGAAAGGGCGTA, the binding signal (log2 normalized fluorescence) was -0.0196. For TGACAGCTCGTA, the binding signal (log2 normalized fluorescence) was 0.116. Work on TGAGGGAAAGTA yielded a binding signal (log2 normalized fluorescence) of -0.0826. For TGACGTCGCGTA, the binding signal (log2 normalized fluorescence) was 0.22. TGAACAGCAGTA gave a binding signal (log2 normalized fluorescence) of 0.302. In the case of TGAGCACATGTA, the binding signal (log2 normalized fluorescence) is reported as 0.511. TGACCGTGTGTA showed a binding signal (log2 normalized fluorescence) of 0.341. In the case of TGACCCATAGTA, the binding signal (log2 normalized fluorescence) is reported as -0.0373. TGAACGTATGTA was tested, and the binding signal (log2 normalized fluorescence) was 0.29. Sequence TGATGGTATGTA has a binding signal (log2 normalized fluorescence) of 0.294. Sequence TGAGTGTGGGTA has a binding signal (log2 normalized fluorescence) of 0.248. For TGATAGTGCGTA, the binding signal (log2 normalized fluorescence) was 0.231. TGACCATCTGTA was tested, and the binding signal (log2 normalized fluorescence) was 0.326. TGACCGCAAGTA showed a binding signal (log2 normalized fluorescence) of 0.2. Sequence TGAAGCTTGGTA has a binding signal (log2 normalized fluorescence) of 0.0269. Sequence AGAGAACGATGT has a binding signal (log2 normalized fluorescence) of 0.248. Sequence TGATGAGGGGTA has a binding signal (log2 normalized fluorescence) of 0.348. Sequence TGAGTTGTAGTA has a binding signal (log2 normalized fluorescence) of -0.129. TGAGAGATTGTA showed a binding signal (log2 normalized fluorescence) of -0.173. In the case of TGACGCTATGTA, the binding signal (log2 normalized fluorescence) is reported as 0.128. TGATCTTAGGTA showed a binding signal (log2 normalized fluorescence) of -0.24. Sequence TGACCTACGGTA has a binding signal (log2 normalized fluorescence) of 0.193. Work on TGAAGCATGGTA yielded a binding signal (log2 normalized fluorescence) of 0.528. TGATTAAGCGTA was tested, and the binding signal (log2 normalized fluorescence) was -0.0845. TGATCCTTGGTA gave a binding signal (log2 normalized fluorescence) of -0.0027. TGACTATAGGTA gave a binding signal (log2 normalized fluorescence) of -0.104. Work on TGATTTTCGGTA yielded a binding signal (log2 normalized fluorescence) of -0.043. TGATGCCACGTA was tested, and the binding signal (log2 normalized fluorescence) was 0.472. In the case of TGATGGGGGGTA, the binding signal (log2 normalized fluorescence) is reported as 0.676. For TGACTACGCGTA, the binding signal (log2 normalized fluorescence) was 0.287. TGAACCAGCGTA was tested, and the binding signal (log2 normalized fluorescence) was 0.122. Sequence TGACTGTAGGTA has a binding signal (log2 normalized fluorescence) of 0.178. TGAGCAGCGGTA gave a binding signal (log2 normalized fluorescence) of 0.0954. TGATCTATAGTA gave a binding signal (log2 normalized fluorescence) of -0.169. For TGATGACCGGTA, the binding signal (log2 normalized fluorescence) was 0.0179. TGACCAGGCGTA gave a binding signal (log2 normalized fluorescence) of 0.0707. Work on TGATTATGAGTA yielded a binding signal (log2 normalized fluorescence) of -0.113. TGACTTCAGGTA showed a binding signal (log2 normalized fluorescence) of 0.148. Sequence TGACTTTGAGTA has a binding signal (log2 normalized fluorescence) of -0.0354. TGAAACGGAGTA gave a binding signal (log2 normalized fluorescence) of 0.0651. TGACAGGCGGTA gave a binding signal (log2 normalized fluorescence) of 0.39. Sequence TGAACCTACGTA has a binding signal (log2 normalized fluorescence) of 0.131. For TGACGAGTTGTA, the binding signal (log2 normalized fluorescence) was 0.0931. With TGAGATAATGTA the binding signal (log2 normalized fluorescence) was -0.185. With TGACGTAGCGTA the binding signal (log2 normalized fluorescence) was -0.162. Sequence TGATCATGGGTA has a binding signal (log2 normalized fluorescence) of 0.32. TGACGCGTGATA showed a binding signal (log2 normalized fluorescence) of 0.675. TGATCGGCTGTA gave a binding signal (log2 normalized fluorescence) of -0.0719. Work on TGAACAATAGTA yielded a binding signal (log2 normalized fluorescence) of 0.0267. Sequence TGAGAATTGGTA has a binding signal (log2 normalized fluorescence) of -0.227. Work on TGATGTACTGTA yielded a binding signal (log2 normalized fluorescence) of 0.281. TGAAATGGCGTA showed a binding signal (log2 normalized fluorescence) of 0.153. With TGAGAAGGCGTA the binding signal (log2 normalized fluorescence) was -0.061. Sequence TGACGGTTAGTA has a binding signal (log2 normalized fluorescence) of 0.0339. In the case of TGAATTAAAGTA, the binding signal (log2 normalized fluorescence) is reported as -0.173. In the case of TGAATTGCTGTA, the binding signal (log2 normalized fluorescence) is reported as 0.163. Sequence TGAAATTGTGTA has a binding signal (log2 normalized fluorescence) of 0.0934. Sequence TGATGTCTAGTA has a binding signal (log2 normalized fluorescence) of 0.116. In the case of TGATCAGTAGTA, the binding signal (log2 normalized fluorescence) is reported as -0.0229. With TGAAAATGGGTA the binding signal (log2 normalized fluorescence) was 0.0408. With TGACGTGTTGTA the binding signal (log2 normalized fluorescence) was 0.258. TGAGCTGTAGTA showed a binding signal (log2 normalized fluorescence) of -0.029. With TGACATCTGGCA the binding signal (log2 normalized fluorescence) was 0.303. In the case of TGATAAGCAGTA, the binding signal (log2 normalized fluorescence) is reported as -0.166. TGATGTAAGGTA gave a binding signal (log2 normalized fluorescence) of 0.0753. For TGACGCTAAGTA, the binding signal (log2 normalized fluorescence) was 0.0655. Work on TGAGAAGATGTA yielded a binding signal (log2 normalized fluorescence) of 0.0771. TGATTTACAGTA was tested, and the binding signal (log2 normalized fluorescence) was -0.0512. In the case of TGAGAAGTCGTA, the binding signal (log2 normalized fluorescence) is reported as -0.086. In the case of TGAGAGCGGGTA, the binding signal (log2 normalized fluorescence) is reported as 0.0295. Work on TGATCTCGCGTA yielded a binding signal (log2 normalized fluorescence) of 0.257. For CGACACGCTGTA, the binding signal (log2 normalized fluorescence) was 0.538. Sequence TCAGAAGTGGTA has a binding signal (log2 normalized fluorescence) of 0.203. TGATTCTAGGTA gave a binding signal (log2 normalized fluorescence) of -0.199. Sequence TGACCGCTAGTA has a binding signal (log2 normalized fluorescence) of 0.067. TGAGCTTTTGTA was tested, and the binding signal (log2 normalized fluorescence) was -0.129. Work on TGATCCTCTGTA yielded a binding signal (log2 normalized fluorescence) of -0.0198. For TGAAACTCAGTA, the binding signal (log2 normalized fluorescence) was -0.077. For TGATAATATGTA, the binding signal (log2 normalized fluorescence) was -0.144. Sequence TGAACATCAGTA has a binding signal (log2 normalized fluorescence) of 0.108. In the case of TGAGCCGGGGTA, the binding signal (log2 normalized fluorescence) is reported as -0.155. For TGACCGCCCGTA, the binding signal (log2 normalized fluorescence) was 0.143. TGAAACTACGTA gave a binding signal (log2 normalized fluorescence) of 0.0181. Sequence TGACTCTGCGTA has a binding signal (log2 normalized fluorescence) of 0.00745. TACGTGCCGCGA was tested, and the binding signal (log2 normalized fluorescence) was 0.356. TGAAACCATGTA showed a binding signal (log2 normalized fluorescence) of 0.363. Sequence TGACGCCGCGTA has a binding signal (log2 normalized fluorescence) of 0.211. Sequence TGATAACACGTA has a binding signal (log2 normalized fluorescence) of 0.413. In the case of TGACAGCCAGTA, the binding signal (log2 normalized fluorescence) is reported as 0.0649. TGATAGTTAGTA gave a binding signal (log2 normalized fluorescence) of -0.14. TGATCAGGTGTA was tested, and the binding signal (log2 normalized fluorescence) was 0.37. With TGAAGTATTGTA the binding signal (log2 normalized fluorescence) was 0.103. TGAAGTTGTGTA showed a binding signal (log2 normalized fluorescence) of 0.0113. For TGACCAATGGTA, the binding signal (log2 normalized fluorescence) was 0.17. TGATAAATGGTA gave a binding signal (log2 normalized fluorescence) of 0.0621. TGATTGGTAGTA gave a binding signal (log2 normalized fluorescence) of -0.171. With TGATAGGATGTA the binding signal (log2 normalized fluorescence) was 0.00287. TGACTATCGGTA was tested, and the binding signal (log2 normalized fluorescence) was -0.109. TGATAAATAGTA was tested, and the binding signal (log2 normalized fluorescence) was -0.137. For TGAGATACTGTA, the binding signal (log2 normalized fluorescence) was 0.0136. In the case of ATCCACGTGGTA, the binding signal (log2 normalized fluorescence) is reported as 0.471. In the case of TGACAGAGCGTA, the binding signal (log2 normalized fluorescence) is reported as 0.145. TGACACGGGTTA gave a binding signal (log2 normalized fluorescence) of 0.444. With AATCTAGTCTAC the binding signal (log2 normalized fluorescence) was 0.0163. Sequence TGCCAGGTAGTA has a binding signal (log2 normalized fluorescence) of 0.00772. TGACGCCGAGTA was tested, and the binding signal (log2 normalized fluorescence) was -0.0126. With TGAGCGTCCGTA the binding signal (log2 normalized fluorescence) was -0.17. For TGAGCCGAAGTA, the binding signal (log2 normalized fluorescence) was -0.142. In the case of TGACATTCTGTA, the binding signal (log2 normalized fluorescence) is reported as -0.0655. With TGACTTTGGGTA the binding signal (log2 normalized fluorescence) was -0.176. Work on TGACCCAAAGTA yielded a binding signal (log2 normalized fluorescence) of 0.072. With TGATACACCGTA the binding signal (log2 normalized fluorescence) was 0.107. TGACTGATCGTA gave a binding signal (log2 normalized fluorescence) of 0.13. With TGATTTCTAGTA the binding signal (log2 normalized fluorescence) was -0.158. With TGAAGCTTCGTA the binding signal (log2 normalized fluorescence) was 0.0294. Sequence TGAGGAGGTGTA has a binding signal (log2 normalized fluorescence) of -0.0208. TGACACATTGTA showed a binding signal (log2 normalized fluorescence) of 0.375. Work on TGAAGGGCAGTA yielded a binding signal (log2 normalized fluorescence) of -0.0227. Work on TGAAGGGATGTA yielded a binding signal (log2 normalized fluorescence) of 0.0676. TGAACGTTCGTA was tested, and the binding signal (log2 normalized fluorescence) was 0.265. With TGAACCGACGTA the binding signal (log2 normalized fluorescence) was 0.0827. In the case of TAACACTTGGTA, the binding signal (log2 normalized fluorescence) is reported as 0.334. Sequence TGACCCGGTGTA has a binding signal (log2 normalized fluorescence) of 0.0386. Sequence TGAGACCCTGTA has a binding signal (log2 normalized fluorescence) of 0.0923. For TGACCGTCCGTA, the binding signal (log2 normalized fluorescence) was 0.211. For TGACACGTTTAA, the binding signal (log2 normalized fluorescence) was 0.5. TGAATTATTGTA was tested, and the binding signal (log2 normalized fluorescence) was -0.0941. TGAATGCCCGTA gave a binding signal (log2 normalized fluorescence) of -0.026. TGATTTTGTGTA was tested, and the binding signal (log2 normalized fluorescence) was -0.109. Sequence TGACCTTTGGTA has a binding signal (log2 normalized fluorescence) of 0.00898. Work on TGACCTTAAGTA yielded a binding signal (log2 normalized fluorescence) of 0.117. TGAGATATCGTA gave a binding signal (log2 normalized fluorescence) of 0.0131. TGACACTCGGGA gave a binding signal (log2 normalized fluorescence) of 0.262. In the case of TGAGAGGAGGTA, the binding signal (log2 normalized fluorescence) is reported as -0.0221. In the case of TGAAGGTTGGTA, the binding signal (log2 normalized fluorescence) is reported as 0.0682. TGACGGGCCGTA showed a binding signal (log2 normalized fluorescence) of 0.193. For TGAATTCTTGTA, the binding signal (log2 normalized fluorescence) was -0.0721.
